Data as given in PubChem BioAssay AID2202238 (Ras Initiative Chemistry Research Team, Frederick National …, 2025).
The other results are listed elsewhere or left out. Shown are side measurements of this screen, not its main read-out; they come without a call.

Target: GTPase KRas (Homo sapiens) (UniProt P01116)
Experiment: Fragment capture on engineered cysteines, share of protein labelled (AID 2202238)
Parameters: protein at 5 µM with 500 µM competing thiol for 1.5 h
Settings: KRAS G12D cysteine mutants, disulfide tethering, MALDI-TOF labeling, stronger effect = higher value, fragment at 500 µM
[1] = measured here: G60C mutant labeling
[2] = measured here: G75C mutant labeling
[3] = measured here: H94C mutant labeling
[4] = measured here: I36C mutant labeling
[5] = measured here: L120C mutant labeling
[6] = measured here: M67C mutant labeling
[7] = measured here: M72C mutant labeling
[8] = measured here: N26C mutant labeling
[9] = measured here: N86C mutant labeling
[10] = measured here: P121C mutant labeling
[11] = measured here: S122C mutant labeling
[12] = measured here: S136C mutant labeling

Sequence of UniProt P01116 (P01116 whole entry, looked up, the tested form may be a part): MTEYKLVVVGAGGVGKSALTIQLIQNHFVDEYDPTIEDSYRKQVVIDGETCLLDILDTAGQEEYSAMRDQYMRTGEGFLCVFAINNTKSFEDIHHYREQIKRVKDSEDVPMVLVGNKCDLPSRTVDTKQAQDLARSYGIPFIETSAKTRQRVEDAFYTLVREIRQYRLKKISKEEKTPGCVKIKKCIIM

SMILES	percent labeling [1]	percent labeling [2]	percent labeling [3]	percent labeling [4]	percent labeling [5]	percent labeling [6]	percent labeling [7]	percent labeling [8]	percent labeling [9]	percent labeling [10]	percent labeling [11]	percent labeling [12]
O=C(NCCS)c1cn2c(Br)cnc2s1	37.3%	19.2%	25.3%	23.4%	18.8%	22.5%	48%	35.6%	19.2%	18.2%	16.5%	34.7%
O=C(CCS)N(CCn1ccnc1)Cc1ccsc1	–	15.9%	44.8%	46.4%	34.4%	48.6%	38.3%	–	42.8%	36%	37.1%	62.1%
N#Cc1cccnc1N1CCCN(C(=O)CCS)CC1	–	15.3%	39.5%	52.2%	37%	48.8%	45.1%	–	32.2%	41.1%	40.7%	69%
O=C(CC(c1ccccc1)c1ncc[nH]1)NCCS (stereo not drawn)	39%	11.7%	31.4%	29.2%	30.7%	34%	21.2%	34.8%	28.2%	32.2%	26.4%	48.8%
O=C(NCCS)C1CC1c1c(F)cccc1F (stereo not drawn)	47.3%	19.4%	27.2%	17.3%	26.1%	53.7%	40.5%	31.9%	9%	34.2%	16.5%	40.4%
Cc1ccc(-c2ccncc2)cc1NC(=O)CCS	–	24.7%	31.6%	22.9%	20.1%	28.2%	31.1%	–	14.2%	23%	17.3%	34.7%
O=C(CCS)NC1CC(c2ccccc2F)C1 (stereo not drawn)	–	18.1%	29.5%	25.5%	21.1%	30.6%	46.4%	–	24.9%	28%	22.5%	50.2%
O=C(CCNC(=O)NC1CCCCC1)NCCS	26.1%	14.1%	31.1%	24.1%	42.5%	25.2%	24.2%	38.7%	26.4%	33.1%	31.6%	39.4%
Cc1noc(C)c1CN(C(=O)CCS)C1CC1	–	18.3%	41.5%	39.2%	30.8%	46.2%	45.7%	–	32.6%	36.7%	41%	59.4%
Cc1c(C(=O)NCCS)cccc1-c1ccccn1	40%	14%	35.3%	23.7%	31%	37.3%	30.7%	44.3%	28.3%	40%	27%	46.2%
Cc1[nH]c(=O)c(C#N)c(C)c1CCC(=O)NCCS	38.7%	14.5%	31.2%	34.2%	31.5%	36.9%	18.7%	37.8%	25.7%	34%	31.2%	44.1%
O=C(NCCS)c1c(F)ccc(C(F)(F)F)c1F	37.7%	14.6%	25.8%	17.3%	29.3%	21%	44.7%	30.1%	25.6%	23.9%	21.6%	26.6%
CC1(C)CN(C(=O)CCS)Cc2ccccc2O1	–	19.1%	39.9%	29.3%	29.7%	34%	58%	–	21.8%	32.8%	35.4%	70.6%
CC(=O)NC(Cc1c[nH]c2cc(F)ccc12)C(=O)NCCS (stereo not drawn)	49.3%	20%	36.5%	32.7%	32.4%	64.9%	58%	45%	31.8%	31%	27%	36.3%
Cn1cc(-c2ncccc2C(=O)NCCS)cn1	22.3%	8.5%	29.7%	21.7%	24.5%	30.5%	9.9%	32.6%	20.3%	30.5%	25.4%	36.9%
